Experimental data: the supplement of paper PMC10126150
Sequences with one replicate were seen in a single cluster, so their values are uncertain.

System: ATP
Test: switch fluorescence ratio, 500 uM ATP over buffer (Cy3 cluster intensity, sum of 5 cycles each) (fold (ratio)); higher = stronger signal-on switching upon ATP binding; sequences stand for … in TCGTCGGCAGCGTCAGATGTGTATAAGAGACAGTTTTTTTTTTTTTTTTTTTTTTTTT…TC
Conditions: aptamer strand: ATP DNA aptamer (quencher-CACCTGGGGGAGTATTGCGGAGGAAGG + anchor), 100 nM annealed; ATP concentration: 500 uM; one replicate
Procedure, shortened: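 For every switch-domain sequence, the fluorescence ratio is the mean of per-cluster values, each being summed target-cycle Cy3 intensity over summed buffer-cycle Cy3 intensity. Clusters outside 100-1000 RFU were excluded. On a modified Illumina MiSeq flow-cell, the Cy3-labelled switching-strand clusters were annealed to 100 nM quencher-labelled ATP aptamer, imaged in selection buffer and then after 15 min with 500 uM ATP at 22 °C. Five such cycles were run, with NaOH stripping and re-annealing between them.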
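Further: ATP exposure 15 min at 22 °C before imaging.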

Sequence	switch fluorescence ratio
TTTGGTTCCG	1.05
TCTTAGTAAA	0.967
AGCTGGTTGG	0.988
CATGCGCTCG	1.04
ATCCGGGGGT	0.993
GGCTGGGACA	1.03
TAGACAGATT	0.964
ACCAATGTGC	1.06
CAAACATCGG	1.01
AAGCCACCCG	1.1
GAATGAGCGC	1.15
GCAAGGCCGC	1.08
TCTCTAAATC	2.23
TACGGAGTTC	1.01
TGCTAGTGTT	1.06
AAAGTGCGAA	0.947
ACAAAACGTG	1.05
CTTCAGGAAC	0.996
TTGTAGGGCT	0.966
TACAGTTGTT	1.03
CCGTTTTGTG	1.03
GTTCGGTGTT	1.03
TATTTGGGCT	0.993
AGGCCAAAAT	0.946
CACTCTTGGA	0.975
ATCTCGATTA	0.953

Sequence	switch fluorescence ratio
ATTCCGGACG	0.964
GGATCTCGAG	0.961
AGAGAGAAAT	0.994
CAGAAGTCGG	0.982
TAACGACGCT	1.84
ATCTGGTATT	1.04
AGAACCGGTT	1.01
AGGTGGTACT	1.01
GGAATTCTCT	0.965
GGTTGTTATT	1.02
ATCGCACAAT	1.16
CCATTGTGCC	0.948
TGCACTTAAA	1.02
ACTTCAGGTG	5.18
TAAGCCCCTG	0.99
TAAGGTAACT	0.994
CATGAATAAA	1
GTGGACTCGT	1.02
TTATTTTCTC	0.998
CGTGTGCGTA	0.971
AGGGGTAGTC	0.855
AAGGCATTTA	0.981
TTGTAACCGA	1.2
TCTGCGACAA	1.39
CATACATAAA	1
GACTTGGTCT	0.958

Sequence	switch fluorescence ratio
TTGGATAGTC	0.959
TTACCCGAGC	0.993
TCTTAAGATG	0.995
AGTGACCTTG	0.996
ACGAATGAAG	0.969
GGCGCCAAGG	0.975
TTGTGTCGCG	1.06
TGCTAGGCTT	1.03
TCCTCGAGGA	0.967
ATCGCATTAT	1.77
TTGTTCTTAC	1.05
AGTTTAAGA	0.992
CAACACCATA	1.07
CCATTTCATG	0.959
CGCCGCTCAT	1.1
CGGCTCGGAG	1.01
GCAGCCGTTC	1.04
TGCCTCAACA	1.06
CCAGTAAGCG	1.02
TGCTAACGGG	1.01
CCATTGAAA	1.01
TCAGGTGTA	1.64
ATGTGAACAC	0.983
TGCGTCTTAC	1.02
GCCCTGTCGT	1.01
CCTGCAGGTA	1.05

Sequence	switch fluorescence ratio
TCCGCCCCTA	1.65
TTGGATGCAT	0.999
ATTTTCCTTA	0.99
GCCGAAGACA	1
CTTTACCGTT	0.999
TTCGATAGAT	1.05
GCGTTAGAGT	1.06
GTGATTCAGA	0.995
TTAGTGAGGC	0.986
GGTATGTGGA	0.965
ATCTTCCTG	1.14
CCCCGATCT	1.09
CGTATCGAAT	0.994
TACACCACTT	1.3
TGGTTATCGG	1.01
CGTGTATAG	1.03
CAAATCGCAC	1.33
GGGCTGAGTC	0.971
GTACTGAAGC	1.04
TAGCAAAATA	0.981
CGCGGGTTTC	1.03
TTAAGGGGT	0.975
CTGCGAAAGA	1.02
CTAAGAATTA	0.992
CAGGGGTGTC	0.996
ACAGGACACA	1.11

Sequence	switch fluorescence ratio
TAGTTTTCGA	1.02
ACTGTGGGT	1.01
ACCCGGCTGG	1.01
CTAGCTGT	0.995
CACACGTTGA	1.04
TTACGAAATC	1.29
AGTCGTGATT	1.01
CAAAGTCATA	1.01
CTTATGAGTA	0.999
GATGCGGCAT	1.03
TGGATATTGG	0.989
CGAGGCTTCA	1.08
CTTGTGCT	0.977
GAGGTTACAT	1.01
TTTCAAGT	1.03
AGTTGAGTCA	0.948
AGATCGTTCC	1.51
TAATGATTCC	1.14
CGGTGTGCCA	0.988
ATGTGCAGGA	0.999
GCTGGTGACA	0.996
GCCGTTCGC	1.15
CAGACTATTT	1.01
TGACGGTAGG	1.01
CATCGGTAT	1.01
GATTTCGAC	0.997

Sequence	switch fluorescence ratio
CTCAGGTTTG	1.02
GGTTTGAAGA	0.976
GATCGCAGTG	0.985
GGTTATGTGG	0.979
GGGGACGGAG	1.05
ATCTCGCCGC	1.08
ATATCTGTCG	0.967
CTGGGAGGAA	0.963
GCCCGGACAG	1.03
ATCCACTATC	1.09
AGGAGCGTA	1.02
TTCATCTGTG	1.01
AGCGGCGTA	1
TACACAATGT	1.08
GGAGAAGTCG	0.972
AAACGACTGA	1.05
TTAGATCATT	1
ACCTGATGGA	0.995
AGCCATCATA	0.977
TGTAATATTT	0.973
ACTGTTTCCG	1.03
AGTTGGTGAC	0.992
CCAGATCGCA	1.18
AAGCCTACGA	1.06
GAGTAATAAA	1.06
ACTTTCAT	1.06

Sequence	switch fluorescence ratio
TTTACCTTAA	1.59
CGAAATCTTA	0.992
TGGAGTCGAA	1
CGGCCAGATG	1.09
CCGGACGAC	4.12
CTCGTCGTAC	1.48
CGAACCTGCT	1.01
ATGCGCAT	0.958
TCGTATGCTA	0.954
TGCTCGCACT	1.11
TAATTCCCTT	1.01
CGAGGGGT	1.02
ATATACTAGG	1.01
GTTATTGGCA	1.04
GAAGTATAGT	0.983
TATTGTATTA	1.02
AGTGGCCCCT	1.01
AGTCGGGCAC	1.01
AGCAACGCAC	1.4
TGACATTTTC	1
TCAGTCGGAG	1.04
TCTTTTATTG	1
ATTATGAGGT	1
GCTAGTTACT	0.99
CATAACCGGG	0.999
AAAACTAGTA	1.01

Sequence	switch fluorescence ratio
ATAAGGCCAA	1.04
AATGTAGTAT	0.974
AGGTCACTCT	1
CAAGCCACCT	1.01
ACAATGCCCA	1.03
TGGGAAGCGC	0.892
AATGAGGACC	0.98
GGCGGGATTT	0.995
CATTCCCTA	1.01
CGGTACAAGA	1.03
TTCCTTCATG	1
CAATACATGT	1.02
ATAGTTGT	0.944
TGTGAGTAAG	1
GCAACCCTG	1.02
GCGGTGGGAC	1.04
TTATATATAG	0.998
TATAACCTTC	2.32
TAAAGGTAAA	0.971
